Measurements as given in ChEMBL document CHEMBL4888484, “Replenishing the malaria drug discovery pipeline: Screening and hit evaluation of the MMV Hit Generation Library 1 (HGL1) against asexual blood stage Plasmodium falciparum ,using a nano luciferase reporter read-out” (2022).
In all, about 150,000 compounds went through this assay and about 540 (0.36%) showed an effect of 50% or more. This is one part of the list.

Tested on: Plasmodium falciparum
Experiment: Primary screen in NF54 nanoGlo assay, in single point, at 2uM, 72h; a lower Z score goes with more inhibition
Format: functional, Erythrocyte
Conditions: timepoint 72 hour

SMILES | % Inhibition | Z score
OC(C1CCN(C2CCCCc3ccccc32)CC1)C(F)(F)F (configuration not stated) | 0% | 0.03
O=S(=O)(c1ccoc1)N1CC2(CCCC2)C1 | -9% | 0.78
N#Cc1nc(C2CC2c2ccccc2)oc1N1CCCCC1 (configuration not stated) | -13% | 1.73
CCOC(=O)c1cnn(-c2ccnc3cc(Cl)ccc23)c1CN1CCC(C(=O)OCC)CC1 | -14% | 1.96
CCc1cccc(C)c1NC(=O)CN(C)S(=O)(=O)c1cc2c(cc1C)NC(=O)[C@H](C)O2 | -6% | 0.52
CCOc1cc(C(=O)NCc2nc(COc3ccccc3)n[nH]2)n[nH]1 | -9% | 1.02
CCc1nc(C(=O)N2CCOCC[C@@H]2C)nn1-c1ccccc1 | -3% | 0.33
O=C(Cn1cnc2nc(N3CCCC3)sc2c1=O)NCc1ccccc1Cl | -9% | 1.42
Cc1nc(-c2ccccc2NC(=O)Cn2cccn2)cs1 | -10% | 1.84
O=C(NC[C@H]1CCCO1)C1=COCCO1 | -12% | 1.27
Cc1ccccc1C(=O)NC(C(C)C)C(C)C | -9% | 1.62
O=S1(=O)N=CN(c2ccc(Oc3ccccc3)cc2)c2ncccc21 | 2% | -0.29
COC(=O)C(C)(C)CNC(=O)Nc1ccc2c(c1)N(C)CCO2 | -9% | 1.13
Fc1cc(Cl)c(NCc2nnc(C3CCC3)o2)c(Cl)c1 | -2% | 0.22
CCOc1ncccc1C(=O)Nc1nc2c(s1)C[C@@H](NC(=O)OC(C)(C)C)CC2 | -12% | 1.14
CN(CC(=O)NCc1ccc2c(c1)OCO2)Cc1cnn(C)c1 | -8% | 1.23
CC(=O)N[C@@H]1C[C@H](CC(C)C)O[C@H](c2cccc3c(C)c(C)[nH]c23)C1 | -1% | 0.11
CCc1ccc(C(=O)N2CCC3(CC2)[C@H](O)C[C@@H]3OC)[nH]1 | -9% | 1.31
O=C(c1ccc2nccnc2c1)N1CCC(N2C(=O)COC2=O)CC1 | -26% | 4.94

SMILES | % Inhibition | Z score
Cc1ccc(-c2cc(C(=O)NCc3ccncc3)no2)cc1F | -14% | 2.6
CC(C)CC(=O)N1CCc2nc(N)sc2C1 | 8% | -1.08
Cn1cc(C(=O)N2CCCc3cc(Cl)cc(Br)c32)nn1 | 7% | -0.99
O=C(Cn1nnc2ccccc21)NC[C@H]1CCOC1 | 5% | -0.88
O=C(NCc1nccn1CCCc1ccccc1)c1ccc(O)nc1 | -11% | 1.21
Cc1noc(C2(c3ccc(Cl)cc3)CCOCC2)n1 | -8% | 1.56
O=C(c1ccnc(C2CC2)n1)N(Cc1ccccc1)C1CCNCC1 | 14% | -1.8
Cc1nonc1CC(=O)N1CC[C@H]1c1ccc(F)cc1 | -8% | 1.31
COc1ccc(NS(=O)(=O)c2ccc(-c3[nH]nc(C)c3C)o2)cc1 | -4% | 0.62
CO[C@H]1CC[C@@]2(OC)CCN(C(=O)Cc3c[nH]c4ccccc34)[C@H]2C1 | 2% | -0.49
CCc1ccccc1N1C(=O)N[C@H](c2ccc(Cl)cc2Cl)C1=O | -8% | 1.24
O=C(Nc1cccnc1)N1CC2(CC2)c2ccccc21 | -10% | 1.21
O=C(Nc1ccc(-n2cccc(C(=O)NCCCN3CCOCC3)c2=O)cc1)c1ccc(F)cc1 | -8% | 1.11
CCN(CC)c1ccc(C(=O)N2CCC(O)(c3nnn[nH]3)CC2)cc1 | -17% | 1.94
C=CCNc1nc(CC2CC2)nc2c1CCNCC2 | -1% | 0.17
CC(O)CC1COCCN1C(=O)NC(c1ccccc1)C1CC1C (configuration not stated) | -2% | 0.2
CC(C(=O)O)N(C)CC(O)c1ccccc1Br (configuration not stated) | -3% | 0.61
O=C(c1noc2c1CCCC2)N1CCn2c(cc3cc(Cl)ccc32)C1 | 0% | 0.07
Cc1cccc2[nH]c(COCC(=O)NC[C@H]3CCCN(C)C3)nc12 | 14% | -1.8

SMILES | % Inhibition | Z score
CCOc1ccc(C(=O)N(CC(C)C)CC(C)C)cc1OCC | -12% | 1.43
C[C@@](CO)(NCCC(=O)N1CCc2ccccc2C1)c1ccccc1 | 2% | -0.27
CS(=O)(=O)c1ccc(OC[C@@]2(CNC(=O)C3CCCC3)C[C@@H](O)[C@@H](O)C2)cc1 | 8% | -1.22
COCc1nc(NC(=O)COc2cccc3c2ccn3C(C)C)n[nH]1 | -7% | 0.93
Cc1ncc(C(=O)NCc2nonc2C)cn1 | -11% | 1.05
O=C(O)c1cc(O)n2nc3cccc(F)c3c2n1 | 27% | -3.46
CC(C)c1ccc(N2CCn3nc(CNC(=O)C4CCCC4)cc3C2)nn1 | -2% | 0.21
CC(C)Cc1nc(C#N)c(-n2cccn2)o1 | -8% | 0.89
O=C(c1csc(Nc2ncccn2)n1)N1CCc2ccccc2C1 | -22% | 4.19
O=C(N[C@H]1CC[C@H](Oc2ncc(F)cn2)CC1)[C@@H]1COc2ccccc2O1 | -7% | 1.18
CCC(CC)N(Cc1ccc2c(c1)OCO2)C(=O)Cc1cccnc1 | 23% | -2.95
N#Cc1c(-c2cccc(Cn3cccn3)c2)cc(C2CCC2)nc1N | 11% | -1.51
O=C(CCCN1C(=O)CNC1=O)NCCCOc1ccc(F)cc1 | 0% | 0
Cc1cc(NC(=O)c2cc(-c3ccccn3)nc3c(Cl)cccc23)no1 | -1% | 0.16
CNC(=NCCOc1ccc(Br)cc1)NC | -1% | 0.19
CC(C)c1ccc(N2C(=O)CN(C3CCCCCC3)C3CS(=O)(=O)CC32)cc1 (configuration not stated) | 5% | -0.67
Cc1ncc(C(=O)N2CCN(c3ccc(Cl)c(Cl)c3)CC2)c(C)n1 | 3% | -0.67
CC1CN(c2ccnc(C#N)n2)CC(C2CC2)O1 (configuration not stated) | -9% | 0.76
